Here are results for 26 compounds from the supplement of paper PMC12340641.

In all, about 1,000 compounds were measured (“relative growth in counter assay (no AraC = 100%, AraC + DMSO = 0%)”: median about -1.1, highest 2% from about 20 on). Some of the results follow.

The subject of the assay is HEK293FT dCK*-only. The assay can be described thus: relative growth in counter assay (no AraC = 100%, AraC + DMSO = 0%); higher = more growth rescue independent of IKZF1. The conditions noted are these: compound concentration: 5 uM; AraC concentration: 0.3 uM; overnight pretreatment + 4 days AraC. How it is done: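 Growth recovery screen of the molecular-glue-like (Specs) library. HEK293FT cells expressing a dCK*-IKZF1 fusion (primary) or dCK* alone (counter) were pretreated overnight with compound at 5 uM, then given 0.3 uM AraC for 4 days. Hoechst nuclei were counted by imaging. Primary: normalised to pomalidomide (100%) and DMSO (0%), mean of 2 replicates. Counter: normalised to no-AraC (100%) and AraC+DMSO (0%), single replicate.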
Consider `O=C(Nc1ccc(S(=O)(=O)Nc2ncccn2)cc1)c1ccco1`, for which the “relative growth in counter assay” value is -2.29%.

As for `Cc1cc(C)c2[nH]c3nc(SCC(=O)Nc4ccc(Cl)c([N+](=O)[O-])c4)nnc3c2c1`, the “relative growth in counter assay” value is -15.8%.

For the compound `CC(=O)Oc1ccc(N2C(=O)c3ccc(Oc4cccc(N)c4)cc3C2=O)cc1`, the “relative growth in counter assay” value is 0%.

For `Cc1cc(NS(=O)(=O)c2ccc(NC(=O)C(F)(F)F)cc2)nc(C)n1`, the “relative growth in counter assay” value is 2.14%.

For `CCOc1ccccc1C(=O)Nc1ccc(S(=O)(=O)Nc2ccccn2)cc1`, the “relative growth in counter assay” value was -6.95%.

Take `Cc1csc(Nc2cccc(C3CCN(C(=O)CO)CC3)n2)n1`: the “relative growth in counter assay” value is 16.9%.

With `O=C(O)CCCNc1cccc2c1C(=O)N(C1CCC(=O)NC1=O)C2=O` (stereo unspecified), the “relative growth in counter assay” value worked out at 2.89%.

`Cc1cc(C)nc(NS(=O)(=O)c2ccc(NC(=O)c3ccc(F)cc3)cc2)n1`: the “relative growth in counter assay” value turned out to be 4.49%.

Consider `Cc1cnc(Nc2cccc(C3CN(C(=O)C4(c5ccccc5)CC4)CCO3)n2)s1` (stereo unspecified), for which the “relative growth in counter assay” value was -7.66%.

Consider `CC(=O)N1CCCC(c2csc(Nc3ccccn3)n2)C1` (stereo unspecified), for which the “relative growth in counter assay” value came to 0.33%.

As to `O=C(COc1ccc(F)cc1)N1CCC(c2cccc(Nc3nccs3)n2)CC1`, the “relative growth in counter assay” value came to 6.47%.

Turning to `COc1ccccc1C(=O)Nc1ccc(S(=O)(=O)Nc2ncccn2)cc1`, the “relative growth in counter assay” value is -2.6%.

As for `CCC(Oc1ccccc1)C(=O)Nc1ccc(S(=O)(=O)Nc2ncccn2)cc1` (stereo unspecified), the “relative growth in counter assay” value amounted to 27.4%.

In the case of `Cc1ccc(C)c2c1[nH]c1nc(SCC(=O)Nc3ccc(Cl)c(C(F)(F)F)c3)nnc12`, the “relative growth in counter assay” value was -1.4%.

Regarding `Cc1cc(C)nc(NS(=O)(=O)c2ccc(NC(=S)NC(=O)/C=C/c3ccccc3)cc2)n1`, the “relative growth in counter assay” value was -6.41%.

On to `Cc1csc(Nc2cccc(C3CCN(C(=O)c4cccnc4)CC3)n2)n1`, for which the “relative growth in counter assay” value is 5.19%.

For `Cc1ccccc1OCCCC(=O)Nc1ccc(S(=O)(=O)Nc2ncccn2)cc1`, the “relative growth in counter assay” value was -7.62%.

`Cc1cc(C)nc(NS(=O)(=O)c2ccc(NC(=S)NC(=O)c3ccc(F)c(F)c3)cc2)n1`: the “relative growth in counter assay” value is -3.6%.

Take `Cc1ccc(Oc2ccc(N3C(=O)c4ccc(Oc5ccc(N)cc5)cc4C3=O)cc2)cc1C`: the “relative growth in counter assay” value is -6.56%.

Regarding `COc1cc(NS(=O)(=O)c2ccc(NC(=O)CCl)cc2)nc(OC)n1`, the “relative growth in counter assay” value was -11.4%.

`Cc1csc(Nc2cccc(C3CCCN3C(=O)c3cn4cc(Cl)ccc4n3)n2)n1` (stereo unspecified): the “relative growth in counter assay” value turned out to be 22.3%.

On to `COc1ccc2[nH]c3nc(SCC(=O)Nc4ccc(F)cc4)nnc3c2c1`, for which the “relative growth in counter assay” value is -18.8%.

On to `CCN(CC)C(=O)CN1CCOC(c2cccc(Nc3nc(C)c(C)s3)n2)C1` (stereo unspecified), for which the “relative growth in counter assay” value turned out to be 19.4%.

`Cc1csc(Nc2cccc(C3CCCN3C(=O)CCCc3ccc(F)cc3)n2)n1` (stereo unspecified): the “relative growth in counter assay” value is 1.52%.

For `Cn1nccc1/C=C/C(=O)N1CCCC(c2csc(Nc3ccccn3)n2)C1` (stereo unspecified), the “relative growth in counter assay” value stood at 29%.

Take `COCc1nc2ccccc2n1CC(=O)N1CCOC(c2cccc(Nc3ncc(C)s3)n2)C1` (stereo unspecified): the “relative growth in counter assay” value is -6.93%.
